Experimental data taken from PMC4336329 (PLoS ONE, 2015).
In all, about 310,000 compounds went through this assay and about 2,200 (0.71%) showed an effect of 50% or more. Effects have a minus sign here. The list shows a part of the results.

Target: human ether-à-go-go-related gene (hERG) potassium channel (human, UniProt Q12809)
Assay: primary screen, population patch clamp on CHO cells stably expressing hERG

Sequence of human ether-à-go-go-related gene (hERG) potassium channel (Q12809 whole entry, looked up): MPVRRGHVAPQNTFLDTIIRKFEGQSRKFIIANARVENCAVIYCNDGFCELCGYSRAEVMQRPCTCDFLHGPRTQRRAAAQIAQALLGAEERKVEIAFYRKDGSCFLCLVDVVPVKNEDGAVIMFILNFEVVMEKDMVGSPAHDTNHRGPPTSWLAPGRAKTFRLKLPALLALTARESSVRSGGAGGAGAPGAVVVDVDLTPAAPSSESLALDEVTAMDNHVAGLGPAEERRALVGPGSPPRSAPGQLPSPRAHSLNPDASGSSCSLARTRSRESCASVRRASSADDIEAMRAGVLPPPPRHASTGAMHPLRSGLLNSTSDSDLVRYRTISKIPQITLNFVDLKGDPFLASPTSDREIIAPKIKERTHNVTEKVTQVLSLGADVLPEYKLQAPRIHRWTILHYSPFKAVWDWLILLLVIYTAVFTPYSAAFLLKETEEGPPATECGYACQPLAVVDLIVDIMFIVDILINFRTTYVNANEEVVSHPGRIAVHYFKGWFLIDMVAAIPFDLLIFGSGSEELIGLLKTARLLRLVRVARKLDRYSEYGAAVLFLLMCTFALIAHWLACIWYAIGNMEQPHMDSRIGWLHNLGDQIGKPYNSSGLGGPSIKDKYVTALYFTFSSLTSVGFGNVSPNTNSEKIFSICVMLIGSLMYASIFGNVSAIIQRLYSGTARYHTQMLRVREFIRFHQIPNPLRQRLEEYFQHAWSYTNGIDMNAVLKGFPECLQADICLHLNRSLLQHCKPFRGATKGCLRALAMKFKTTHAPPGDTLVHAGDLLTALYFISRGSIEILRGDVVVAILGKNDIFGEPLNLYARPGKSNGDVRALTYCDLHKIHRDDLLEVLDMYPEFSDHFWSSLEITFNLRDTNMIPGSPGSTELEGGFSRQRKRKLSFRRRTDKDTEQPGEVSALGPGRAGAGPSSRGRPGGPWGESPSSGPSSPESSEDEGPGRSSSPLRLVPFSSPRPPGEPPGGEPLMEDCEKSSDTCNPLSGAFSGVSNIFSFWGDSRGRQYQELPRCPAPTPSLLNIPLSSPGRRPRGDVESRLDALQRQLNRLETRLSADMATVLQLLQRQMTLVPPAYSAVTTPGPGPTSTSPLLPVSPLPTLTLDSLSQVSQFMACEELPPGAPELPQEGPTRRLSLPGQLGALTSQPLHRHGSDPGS

| Compound | hERG current change (%, negative = inhibition) at 1uM [%] |
| --- | --- |
| O=C(N/N=C\c1coc2ccccc2c1=O)c1ccco1 | 12.6 |
| Cc1cccc(N2CCN(C(=O)c3cccc(NC4=NC5CS(=O)(=O)CC5S4)c3)CC2)c1C (centres unmarked) | 9.26 |
| COc1ccc(-c2ccnc(SCC(=O)c3ccc(Cl)cc3)n2)cc1 | 9.76 |
| Cc1cc(C2N=C(N)Nc3nc4ccccc4n32)c(C)n1-c1ccccc1Cl (centres unmarked) | 11 |
| O=[N+]([O-])c1ccc(O)c(/C=N/n2cnnc2)c1 | 1.21 |
| CC1C=Cc2ccccc2N1C(=O)c1ccccc1 (centres unmarked) | -10.3 |
| COc1ccccc1/C=C1\SC(=S)N(NS(=O)(=O)c2ccc(C)cc2)C1=O | 5.73 |
| Cc1ccc(-c2nnc(NC(=O)c3ccc([N+](=O)[O-])o3)o2)c(C)c1 | 16.5 |
| COc1ccc(S(=O)(=O)Nc2cccc(-c3ccc4nncn4n3)c2)cc1F | 6.93 |
| CCC(=O)NC(c1cc(Cl)c2ccccc2c1O)C(C)C (centres unmarked) | -0.749 |
| NC(=O)CSc1n[nH]c(-c2ccco2)n1 | 14.9 |
| CC(C)CC(=O)Nc1ccc(Cc2ccncc2)cc1 | 13.1 |
| N#Cc1ccc(OCC(=O)N/N=C(\CCC(=O)O)c2cccs2)cc1 | 9.05 |
| COc1ccc(OCC(=O)Nn2c(-c3ccc(C)cc3)nc3ccccc3c2=O)cc1 | 12 |
| Cc1ccc(C(=O)Oc2ccc(N3C(=O)CCC3=O)c(C)c2)cc1 | 8.05 |
| CCCC/C(C)=N\NC(=O)CNS(=O)(=O)c1ccc([N+](=O)[O-])cc1 | -0.163 |
| CCN(CC)Cc1nc2c(c(=O)[nH]1)C1(CCCC1)Cc1ccccc1-2 | -2.55 |
| CCOc1ccc(S(=O)(=O)Nc2ccccn2)c2ccccc12 | 10.9 |
| CC(=O)c1cccc(CN2CCC(CO)(CCOc3ccccc3)CC2)c1 | -3.07 |
| C=CCNC(=S)N(Cc1ccccc1)Cc1ccc(F)cc1 | 7.88 |
| COc1ccccc1N(CC(=O)NCc1ccco1)S(=O)(=O)c1ccc(C)cc1 | 13.5 |
| COc1ccccc1C1(CCNC(C)c2cccs2)CCOC(C(C)C)C1 (centres unmarked) | 8.27 |
| COc1ccc(C(=O)Nc2cccc(NC(=O)c3ccc(OC)cc3OC)n2)c(OC)c1 | 18.4 |

| Compound | hERG current change (%, negative = inhibition) at 1uM [%] |
| --- | --- |
| CCC(=O)N/N=C(\C)CC(=O)Nc1cc(Cl)ccc1C | 3.18 |
| COc1ccc(-c2c(C)nc(N)nc2-c2ccc(OCc3ccc(C)cc3)cc2O)cc1OC | 9.05 |
| c1ccc(-c2cc(NCCN3CCCCC3)c3ccccc3n2)cc1 | 16.4 |
| COCCN1CCn2c(nc3cc(NC(=O)c4cccs4)ccc32)C1 | 0.263 |
| CN(CC(=O)Nc1ccc(Cl)c(C(F)(F)F)c1)C(=O)C1CCCO1 (centres unmarked) | 12.6 |
| Cc1c(C(=O)O)oc2ccc(S(=O)(=O)N3CC(C)CC(C)C3)cc12 (centres unmarked) | 8.01 |
| COc1cccc(C2C(C(=O)c3sc(C)nc3C)=C(O)C(=O)N2CCN2CCOCC2)c1 (centres unmarked) | 8.92 |
| Cc1ccc(C2C(C(=O)c3cccs3)=C(O)C(=O)N2c2nnc(C)s2)cc1 (centres unmarked) | 11.2 |
| Cc1cc(O)c(CN(C)C)c2c1C(=O)/C(=C/c1ccco1)O2 | 10.4 |
| COc1cccc(-c2nnc(SC(C(=O)c3c[nH]c4ccccc34)c3ccccc3)n2C)c1 (centres unmarked) | 17.4 |
| CC(C)(C)c1ccc(-n2ncc3c2CCCC3NC(=O)C2=NNC(=O)CC2)cc1 (centres unmarked) | -5.06 |
| Cc1cccc(OCCCC(=O)Nc2ccc(S(N)(=O)=O)cc2)c1 | 13.7 |
| O=C(Nc1ccc2ccccc2n1)c1ccc(Cl)cc1 | 13.5 |
| O=C1CC(c2ccccc2)n2nc(N3C(=O)c4ccccc4C3=O)nc2N1 (centres unmarked) | -3.45 |
| CCC1SC2=NCCN2C1(O)c1ccc(Cl)cc1 (centres unmarked) | -1.76 |
| COC(=O)Nc1ccc(S(=O)(=O)N2CCCC(C(=O)N3CCCCCC3)C2)cc1 (centres unmarked) | 13.3 |
| CC(C)(C)NC(=O)NC(=O)C[n+]1ccc(Cc2ccc([N+](=O)[O-])cc2)cc1.[Cl-] | 10.3 |
| O=C1NC2(CCOc3ccccc32)C(=O)N1CC(=O)N(Cc1ccccc1)C1CCS(=O)(=O)C1 (centres unmarked) | 10.9 |
| Cc1csc(=Nc2cccnc2)n1CC1CCCCC1 | 12.7 |
| CSc1c(CN2CCN(C)CC2)c2ccccc2n1C.Cl | 10.2 |
| Cc1sc(NC(=O)CN2CCOCC2)nc1-c1ccc2c(c1)CCN2S(=O)(=O)c1ccccc1 | 4.82 |
| CN1C(=O)c2cccc3c(S(=O)(=O)Nc4ccc(O)c(C(=O)O)c4)ccc1c23 | 11.9 |
| N#Cc1cccc(C#N)c1NCC1CCCO1 (centres unmarked) | 18.2 |

| Compound | hERG current change (%, negative = inhibition) at 1uM [%] |
| --- | --- |
| Cc1onc(-c2ccccc2)c1C(=O)NNC(=S)NC(=O)/C=C/c1ccccc1 | 14.6 |
| O=S1(=O)C[C@H]2NC(=S)N(c3ccccc3)[C@H]2C1 | 4.83 |
| CN1CCN(C(=O)c2ccc3c(c2)N(Cc2ccc(Cl)cc2)C(=O)c2ccccc2S3=O)CC1 (centres unmarked) | 9.42 |
| Cc1cc(C)c(OCCN(C)C)c(Cl)c1.O=C(O)C(=O)O | 6.3 |
| Cc1cc(O)cc(C)c1Cl | 1.16 |
| CC(=O)[C@@H]1[C@@H](C)N(Cc2ccccc2)C(=O)N[C@H]1c1ccccc1 | 15.9 |
| CS(=O)(=O)c1ccc2nc(NC(=O)c3ccc(Cl)nc3)sc2c1 | 15 |
| COc1ccccc1-n1c(SCC(=O)Nc2nnc(C)s2)nc2c(c1=O)SCC2 | 7.63 |
| Cc1csc2nc(O)c(C(=O)NCc3ccc4c(c3)OCO4)c(=O)n12 | 11.9 |
| COc1ccc(CNC(=O)COC(=O)c2n[nH]c3ccccc23)cc1 | 12.1 |
| CC(C)C(=O)N1CCN(S(=O)(=O)c2ccc3ccccc3c2)CC1 | 7.43 |
| Cc1cccc(C(=O)Nc2cccnc2Cl)c1 | 9.65 |
| COC(=O)c1ccc(Cn2nc([N+](=O)[O-])c(Br)c2C)cc1 | 3.9 |
| O=C(COc1ccc(CO)cc1Cl)Nc1ccc(F)cc1 | 16.6 |
| COc1ccc(CN(C(=O)c2oc3cc(C)c(C)cc3c2C)C2CCS(=O)(=O)C2)cc1OC (centres unmarked) | 12 |
| CC1=CCC(COC(=O)Nc2ccccc2)CC1 (centres unmarked) | 11.6 |
| CCOC(=O)N1CCN(C(=O)CSc2nc3c([nH]c4ccccc43)c(=O)n2CC)CC1 | 9.05 |
| CC(C)CC(=O)N/N=C/c1c(N)n(C)c(=O)n(C)c1=O | 19 |
| O=C(Nc1ccc(Cl)cc1)N1CCOCC1 | 12.5 |
| Cc1nn(CC(C)C)c(Cl)c1C(=O)NC1CCC(C)CC1 (centres unmarked) | -8.07 |
| COC(=O)C(O)(c1ccc2c(c1)CCCN2)C(F)(F)F (centres unmarked) | 13 |
| Cn1c(=O)c2c(ncn2CC(=O)Nc2ccc3c(c2)OCO3)n(C)c1=O | 6.84 |
| Cc1ccccc1S(=O)(=O)Cc1ccc(C(=O)NCCN(Cc2ccccc2)C(C)C)o1 | -20.9 |

| Compound | hERG current change (%, negative = inhibition) at 1uM [%] |
| --- | --- |
| Cc1ccsc1-c1nc(CSCC(=O)NCc2ccc3c(c2)OCO3)c(C)o1 | -1.88 |
| Cl.OCCCCNCc1cc(Br)ccc1OCc1ccccc1 | -7.34 |
| O=C(Nc1ccc(F)cc1)N1CCCN(c2nccc(C(F)(F)F)n2)CC1 | 6.72 |
| CN(c1cccc(Cl)c1)S(=O)(=O)c1cccc(C(=O)Nc2ccc3c(c2)CCC3)c1 | 3.4 |
| CC1(C)C(=O)C2(C(=O)NCc3ccccc3)CCC1C2 (centres unmarked) | 14.7 |
| CC(Cn1nnc2ccccc21)C(=O)O (centres unmarked) | 8.59 |
| COc1ccc(NC(=O)COC(=O)c2ccc3ccccc3n2)cc1 | 12.3 |
| CC(C)CC(=O)NC(C)C(c1cccs1)N1CCOCC1 (centres unmarked) | 9.86 |
| COc1cc(CCC(=O)N2CCN(c3ncccn3)CC2)cc(OC)c1OC | 22.4 |
| CC(C)NS(=O)(=O)c1ccc(NC(=O)C2CC3C=CC2C3)cc1 (centres unmarked) | 13.5 |
| CNC(=O)NC(=O)C(C)N1CCN(C/C=C/c2ccccc2)CC1 (centres unmarked) | -32.1 |
| CC(C)NC(=S)Nc1ccc(Oc2ccccc2)cc1 | 6.98 |
| Cn1c(COc2ccccc2)nnc1SCc1cc(=O)[nH]c2ccccc12 | -6.57 |
| COc1ccc(C(=O)NC(C)CCn2cccn2)cc1OC1CCN(C(C)C)CC1 (centres unmarked) | 17.8 |
| CCC1SC(C)C/C(=N/NC(N)=O)C1C (centres unmarked) | 11 |
| Cc1ccc(S(=O)(=O)N(C)C)cc1NC(=O)CSc1nnnn1-c1ccc(O)cc1 | 10.6 |
| Cc1ccccc1C(=O)NC(=S)Nc1ccc(Oc2ccc(Cl)cc2)cc1 | 11.8 |
| CC(C)(C)c1cc(/C=N/NC(=O)Cc2nc3ccccc3[nH]2)cc(C(C)(C)C)c1O | 12 |
| CCOC(=O)c1ccc(Cl)c(S(=O)(=O)N2CCCC2)c1 | 32.5 |
| COc1ccc(N2C(=O)C(Cl)=C(Nc3ccccc3O)C2=O)cc1 | 16.6 |
